Results: PubChem BioAssay AID1963320 (National Center for Advancing Translational Sciences (NCATS), 2024)
The whole screen tested about 1,300 compounds, of which about 560 (43%) were called active. So high a share suggests a set chosen from earlier hits. The shares of active, inactive and inconclusive entries below differ from those in the screen. Calls follow the shape of the dose curve; as a rule, active = well fitted inhibition curve with a large enough effect; inconclusive = small, poorly fitted or top-dose-only effect; inactive = flat fitted curve, though single readings scatter. Where the call is inconclusive, the potency comes from a doubtful curve fit.

What follows are compounds tested against Luciferin 4-monooxygenase (Photinus pyralis) (UniProt P08659) (assay: Firefly luciferase (FLuc-C-HiBiT) enzymatic inhibition screen - Functional assay). Details: purified FLuc-C-HiBiT enzyme, luciferin luminescence; series mostly up to 32.7 µM; activity change, negative = inhibition: at the top concentration.
Excerpt: PI: James Inglese Ph.D. National Center for Advancing Translational Sciences (NCATS), National Institute of Health (NIH), Maryland Discovery and optimization of novel protein-binding ligands underlies many of the methods and applications of biology, drug discovery, clinical diagnostics, and environmental toxicology. Assays for detecting the interaction of, for example, a molecule with a macromolecular target also referred to here as the target of interest (TOI) is dependent on a compatible output technology. Depending on the nature and knowledge surrounding the TOI, whether a receptor, enzyme, regulatory subunit or scaffold, or a sequence-defined nucleic acid folded into a complex tertiary structure, assay strategies can vary widely. Here we exploit ligand-biased changes in the structural dynamics of the target protein to control reporter alpha complementation allowing a non-competitive, non-functional, non-separation measure of ligand-target interaction. […] Secondly, we show the specificity and sensitivity of the SDR for the Abelson tyrosine kinase (ABL1) compared to the serine/threonine protein kinase A, using an enriched chemical library of 128 compounds selected, in part, for activity annotated with ABL1 kinase activity using the Pharos database (3). References: (1) A. S. Dixon et al., NanoLuc Complementation Reporter Optimized for Accurate Measurement of Protein Interactions in Cells. ACS Chem Biol 11, 400-408 (2016). […] Chemistry & Biology, 19, 1060 - 1072 (2012). (3) K. J. Kelleher et al., Pharos 2023: an integrated resource for the understudied human proteome. Nucleic Acids Res 51, D1405-D1416 (2023).
1. Reagent. Dispense 4 uL FLuc-C-HiBiT enzyme-buffer solution per well at a final enzyme concentration of 10 nM with or without 10 uM ATP into columns 2-48 of white, solid bottom medium bind 1536-well plates (Greiner Bio-One) by BioRaptr 2. Dispense respective buffer without enzyme at 4 uL/well in column 1 of assay plates. 2. Compounds. Library compounds and PTC124 control added at 23 nL per well, transfer by Pin Tool. 3. Incubation. Incubate enzyme and compounds at room temperature for >30 min, protect from light. 4a. Reagent. (Functional assay) Add 3 uL of D-luciferin substrate at final (KM) concentration of 10 uM/well of assay plates for FLuc enzymatic assay, in the presence of ATP. 5. Incubation. Incubate enzyme and substrate or detection reagent at room temperature for 5-10 min, protect from light. 6a. Detector. Functional assay measured using CCD-based camera (ViewLux) with settings as follows: Exposure, 10 sec; Gain, High; Speed, Slow; Binning, 2X. REFERENCES: Inglese J, Shamu CE and Guy RK, Reporting data from high throughput screening of small molecule libraries, Nature Chemical Biology, 2007, 3(8): 438-441. doi.org/10.1038/nchembio0807-438.
% is scaled to controls: 0 for no effect and ±100 for the full control effect; potency is read from the fitted curve at half-maximal effect; tags tell the direction and shape of the fitted curve.
Also: nearly all actives have a fitted effect of over 70% in size.

Chain of UniProt P08659 (P08659 whole entry, looked up): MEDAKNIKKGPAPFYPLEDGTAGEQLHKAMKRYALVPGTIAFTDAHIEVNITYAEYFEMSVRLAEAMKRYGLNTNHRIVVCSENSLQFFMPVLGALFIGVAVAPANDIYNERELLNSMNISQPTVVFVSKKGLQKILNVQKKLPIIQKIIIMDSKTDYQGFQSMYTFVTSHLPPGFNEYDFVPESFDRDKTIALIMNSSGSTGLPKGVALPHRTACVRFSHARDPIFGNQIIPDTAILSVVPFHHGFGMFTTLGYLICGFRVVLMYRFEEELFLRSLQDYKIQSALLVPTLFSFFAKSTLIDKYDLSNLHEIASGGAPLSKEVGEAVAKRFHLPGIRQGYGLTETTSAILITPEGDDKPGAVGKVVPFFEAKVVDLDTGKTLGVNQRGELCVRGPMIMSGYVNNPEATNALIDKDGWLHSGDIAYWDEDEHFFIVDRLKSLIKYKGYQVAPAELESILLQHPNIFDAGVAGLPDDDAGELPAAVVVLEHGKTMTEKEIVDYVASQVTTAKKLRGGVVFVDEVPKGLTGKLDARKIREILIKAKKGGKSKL

| SMILES | Potency | activity change, negative = inhibition |
| --- | --- | --- |
| CC(C)CN1CCNc2cc(-c3ccccc3)ncc2C1 | inconclusive: 22.6 µM [inhibitor, partial curve] |  |
| CN1CCNc2cc(Nc3ccc(F)c(Cl)c3)ncc2C1 | active: 12.8 µM |  |
| O=C(Nc1ccc2c(c1)OCCO2)c1cccn(Cc2ccccc2)c1=O | inconclusive: 11.1 µM [inhibitor, partial curve] |  |
| CCn1cc(-c2cc3c(cn2)CN(C)CCN3)cn1 | inconclusive: 22.6 µM [inhibitor, partial curve] |  |
| CN1CCNc2cc(Nc3ccc(F)cc3)ncc2C1 | active: 20.2 µM |  |
| COc1cccc(Nc2cc3c(cn2)CN(C)CCN3)c1 | active: 22.6 µM |  |
| CCCN1CCNc2cc(Nc3ccccc3)ncc2C1 | inconclusive: 25.4 µM [inhibitor, partial curve] |  |
| O=C(Nc1ccccc1)Nc1ccc2n(c1=O)C[C@H]1C[C@@H]2CN(C(=O)c2ccccc2)C1 | inconclusive: 18 µM [inhibitor, partial curve] |  |
| Cc1cc(-c2cc3c(cn2)CN(CC(C)C)CCN3)ccn1 | active: 16.1 µM |  |
| COc1ccc2c(c1)C1(CCN(C(=O)Nc3ccc4c(c3)OCCO4)C1)C(=O)N2C (stereo not given) | inconclusive: 11.1 µM [inhibitor, partial curve] |  |
| c1nc(N2C[C@@H](c3ccc4c(c3)OCO4)[C@@H]3[C@H]2C2CCN3CC2)c2[nH]cnc2n1 |  | inactive: 3.18% |
| CC(C)(C)CC(=O)N1C[C@@H]2C[C@H](C1)c1ccc(NC(=O)Nc3cccc(F)c3)c(=O)n1C2 |  | inactive: -15.1% |
| COc1cc2c(cc1-c1ccc(CO)cc1)NC(=O)C21CCN(C)CC1 | inconclusive: 20.2 µM [inhibitor, partial curve, poor fit] |  |
| COc1ccc(-c2cc3c(cn2)CN(C)CCN3)cn1 | inconclusive: 22.6 µM [inhibitor, partial curve] |  |
| COc1ccc(-n2cc(C3=CCN(CCN4CCOCC4)CC3)cn2)cc1 | active: 9.89 µM |  |
